This is an account of results in PMC4336329 (PLoS ONE, 2015).

Screen size: about 310,000 compounds; about 14,000 (4.5%) showed an effect of 50% or more. Effects have a minus sign here. The list shows a part of the results.
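Note: peak tail current of the secondary pulse compared with the same well before compound.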

Sequence of human ether-à-go-go-related gene (hERG) potassium channel (Q12809 whole entry, looked up): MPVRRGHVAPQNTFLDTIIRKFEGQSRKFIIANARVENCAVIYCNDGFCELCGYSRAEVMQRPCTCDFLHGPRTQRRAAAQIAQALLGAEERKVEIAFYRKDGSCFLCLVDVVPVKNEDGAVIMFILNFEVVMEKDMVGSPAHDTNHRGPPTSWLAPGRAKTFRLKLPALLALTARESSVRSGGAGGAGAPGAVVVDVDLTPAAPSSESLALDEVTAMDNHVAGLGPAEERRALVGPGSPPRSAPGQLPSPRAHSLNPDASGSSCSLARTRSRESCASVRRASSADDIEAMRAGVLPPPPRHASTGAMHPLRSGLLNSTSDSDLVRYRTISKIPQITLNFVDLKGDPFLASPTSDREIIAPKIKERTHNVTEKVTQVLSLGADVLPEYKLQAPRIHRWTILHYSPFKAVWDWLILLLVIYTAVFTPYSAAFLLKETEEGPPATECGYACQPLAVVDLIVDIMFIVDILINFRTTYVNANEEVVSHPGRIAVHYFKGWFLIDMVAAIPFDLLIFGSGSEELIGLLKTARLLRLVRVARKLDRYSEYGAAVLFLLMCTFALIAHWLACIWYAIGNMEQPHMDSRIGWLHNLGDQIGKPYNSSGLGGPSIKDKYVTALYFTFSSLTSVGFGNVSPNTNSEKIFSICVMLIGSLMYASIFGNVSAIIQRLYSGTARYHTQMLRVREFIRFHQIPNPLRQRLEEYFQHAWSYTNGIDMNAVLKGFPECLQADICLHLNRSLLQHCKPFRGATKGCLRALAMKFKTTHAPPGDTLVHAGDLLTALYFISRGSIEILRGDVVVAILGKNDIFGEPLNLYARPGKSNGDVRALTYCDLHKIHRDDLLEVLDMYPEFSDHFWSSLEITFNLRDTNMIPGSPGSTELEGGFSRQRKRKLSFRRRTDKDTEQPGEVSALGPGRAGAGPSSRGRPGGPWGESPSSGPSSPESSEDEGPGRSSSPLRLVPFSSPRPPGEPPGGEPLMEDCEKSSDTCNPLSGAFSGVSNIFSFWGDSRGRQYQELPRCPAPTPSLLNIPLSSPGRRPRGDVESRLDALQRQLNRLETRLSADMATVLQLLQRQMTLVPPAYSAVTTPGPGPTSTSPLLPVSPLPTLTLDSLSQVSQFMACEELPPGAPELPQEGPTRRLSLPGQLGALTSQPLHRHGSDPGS

This experiment addresses human ether-à-go-go-related gene (hERG) potassium channel (human, UniProt Q12809). The experiment is described as follows: primary screen, population patch clamp on CHO cells stably expressing hERG.
On to `CSc1cc(-c2ccccc2)n(Cc2ccccc2Cl)c(=O)c1C#N`, for which the “hERG current change (%, negative = inhibition) at 10uM” value stood at 12%.
Then `CCc1ccccc1NC(=O)COC(=O)C1CC(=O)N(c2ccc(F)cc2)C1` (stereo not shown), with -3.96%; and `CCOC(=O)c1c(-c2ccsc2)csc1N`, with -15.4%.
Then `COc1ccc(S(=O)(=O)n2nc(OC(=O)c3ccc(C)cc3)cc2N)cc1`, with 5.2%.
The figure for `CC(C)(C)CC(=O)Nc1nnc(SCC(=O)NC2CCCCC2)s1` is -36.5%; for `O=S(=O)(c1ccc(Cl)s1)N1CCN(c2ncccn2)CC1` it is -2.48%; for `COc1ccc2ccccc2c1/C=N/NC(=O)c1cccc([N+](=O)[O-])c1` it is 13.5%.
`CC(C)(C)c1csc(NC(=O)CCc2ccccc2)n1`: the “hERG current change (%, negative = inhibition) at 10uM” value was -37.7%.
Consider `O=C(NCCOc1ccccc1F)c1cccc(S(=O)(=O)N2CCN(c3ccccc3)CC2)c1`, for which the “hERG current change (%, negative = inhibition) at 10uM” value is recorded as -3%.
Then `O=C(c1noc2c1CCCC2)N1CCc2ccccc2C1`, with -10.7%; and `COc1ccc(NC(=O)CSc2nnc(C3CC3)n2C)cc1S(=O)(=O)N1CCCCC1`, with -28.3%.
As for `Cc1ccc2c(c1)C1(OCCCO1)C(=O)N2CC#N`, the “hERG current change (%, negative = inhibition) at 10uM” value is on record as 17.3%.
The figure for `CC(C)(C)N1C(=O)c2ccc(C(=O)O)cc2C1=O` is 16.9%.
With `Cc1ccc(NC(=O)COC(=O)c2ccc(OCc3c(C)noc3C)cc2)cc1S(=O)(=O)N1CCOCC1`, the “hERG current change (%, negative = inhibition) at 10uM” value is -1.39%.
Turning to `CCOC(=O)C(CCCOc1ccc(C)cc1)C(=O)OCC`, the “hERG current change (%, negative = inhibition) at 10uM” value is -8.52%.
Then `CN(C)c1ccc(/C=N/NC(=O)c2ccccc2Cl)cc1`, with 10.6%; and `Cc1cc(N2C(=O)C(O)=C(C(=O)c3ccco3)C2c2ccc([N+](=O)[O-])cc2)no1` (stereo not shown), with 10.7%.
Regarding `O=C(c1ccc(S(=O)(=O)NCc2ccco2)cc1)N1CCCC(C(F)(F)F)C1` (stereo not shown), the “hERG current change (%, negative = inhibition) at 10uM” value was 5.73%.
In the case of `CN(CC(=O)Nc1cccc(F)c1)C(=O)COc1cccc2c1OC(C)(C)C2`, the “hERG current change (%, negative = inhibition) at 10uM” value is recorded as -3.5%.
As for `COc1ccc(CCNC(=O)CSc2nc3[nH]ncc3c(=O)n2-c2ccc(Br)cc2)cc1OC`, the “hERG current change (%, negative = inhibition) at 10uM” value was 5.85%.
For the compound `Cc1onc(-c2ccccc2)c1C(=O)NC(=S)NNC(=O)c1cc(-c2ccc(F)cc2)n[nH]1`, the “hERG current change (%, negative = inhibition) at 10uM” value is listed as 6.44%.
The figure for `NS(=O)(=O)c1ccc(CCNC(=O)CSc2ccccc2)cc1` is -3.62%; for `CCN(CC)S(=O)(=O)c1ccc(C(=O)NCc2n[nH]c(=S)n2Cc2ccccc2)cc1` it is 13.3%.
Turning to `O=S(=O)(CCN1C=CC(C(F)(F)F)=NCC1)c1ccc(Cl)cc1Cl`, the “hERG current change (%, negative = inhibition) at 10uM” value was -15.4%.
Then `CCCN1C(=O)C(=O)N(CC(=O)c2cc(C)n(C3CC3)c2C)C1=O`, with -6.28%; and `Cc1ccsc1C(=O)Nc1nccs1`, with 8.23%.
Regarding `CCN(C(=O)C1CSC2(C)CCC(=O)N12)c1nc2c(C)cccc2s1` (stereo not shown), the “hERG current change (%, negative = inhibition) at 10uM” value is reported as 20.4%.
The figure for `CCCCNC(=O)c1c(N)n(Cc2ccc3c(c2)OCO3)c2nc3ccccc3nc12` is 15.3%; for `CCC(C)(C)c1ccc(OCC(=O)N(C)C)c(C(C)(C)CC)c1` it is -4.24%; for `CCc1ccc(C(=O)NNC(=O)CCN2CCN(Cc3ccccc3)CC2)cc1` it is -19.8%.
The figure for `O=C(NC1CCN(Cc2ccccc2)CC1)c1cccc(S(=O)(=O)Nc2cc(C(F)(F)F)ccc2Cl)c1` is -48.8%; for `COc1ccc(N2CC(C(=O)Nc3nnc(C4CCCCC4)s3)CC2=O)cc1` (stereo not shown) it is 4.63%.
On to `Cc1cccc(OCCC(=O)Nc2ccc(F)c(F)c2)c1`, for which the “hERG current change (%, negative = inhibition) at 10uM” value is given as -17.1%.
As for `Cc1cc(SCC(=O)NN)c2cc(Br)ccc2n1`, the “hERG current change (%, negative = inhibition) at 10uM” value is recorded as -1.57%.
As to `O=C(c1cc(COc2ccc(F)cc2Cl)on1)N1CCCCCC1`, the “hERG current change (%, negative = inhibition) at 10uM” value was -3.89%.
The figure for `CC(=O)c1ccc(N2CCN(CCC#N)CC2)c(F)c1` is 6.77%; for `CCn1c(NCc2ccccc2Cl)nc2ccccc21` it is 5.39%; for `O=C(O)CC(NS(=O)(=O)c1ccc(Br)cc1)c1ccco1` (stereo not shown) it is 0.143%.
For `COCC(C)OC(=O)/C(C#N)=C\c1coc2ccc(C)cc2c1=O` (stereo not shown), the “hERG current change (%, negative = inhibition) at 10uM” value is recorded as -20.9%.
With `O=C(c1ccc(C(F)(F)F)cc1)C1CCCN(C(=O)CCc2ccncc2)C1` (stereo not shown), the “hERG current change (%, negative = inhibition) at 10uM” value is on record as -59.4%.
Regarding `O=C(C(=S)N1CCOCC1)c1c[nH]c2ccccc12`, the “hERG current change (%, negative = inhibition) at 10uM” value stood at 6.6%.
For the compound `C[C@H]1C=C(C(=O)NCc2ccccc2)O[C@@H](OCc2ccc(CO)cc2)C1`, the “hERG current change (%, negative = inhibition) at 10uM” value is reported as -10.5%.
The figure for `Cc1cc(N2CCC(C)CC2)n2ncc(-c3ccccc3)c2n1` is 1.06%.
Take `CC(Oc1ccccc1)C(=O)N=C1SC2CS(=O)(=O)CC2N1c1ccccc1` (stereo not shown): the “hERG current change (%, negative = inhibition) at 10uM” value is -8.26%.
The figure for `Cc1nc(NC(=O)COC(=O)c2cc3c(s2)CCC(C)C3)c(Cl)cc1Cl` (stereo not shown) is 12.4%.
Then `O=C(COC(=O)c1cc(Cl)ccc1Cl)Nc1ccc2[nH]c(=O)[nH]c2c1`, with -5.72%.
Then `O=C(Nc1ccccc1)NC1CS(=O)(=O)CC1O` (stereo not shown), with -0.111%; and `CCn1c(-c2ccc(F)cc2)cnc1SCC(=O)N1CCc2ccccc21`, with -1.67%; and `CCOC(=O)C1CCN(c2nc3c(C)cccn3c(=O)c2/C=C(\C#N)S(=O)(=O)c2ccccc2)CC1`, with -18.1%.
In the case of `Cc1cc(C)c(S(=O)(=O)Nc2ncccc2C)c(C)c1`, the “hERG current change (%, negative = inhibition) at 10uM” value is given as -10.7%.
As for `CCn1cc(CN2CCc3c([nH]c4ccccc34)C2c2cccc(OC)c2OC)c(C)n1` (stereo not shown), the “hERG current change (%, negative = inhibition) at 10uM” value came out at 7.99%.
As to `CNC(=O)c1ccccc1Sc1ccccc1CO`, the “hERG current change (%, negative = inhibition) at 10uM” value is 27.9%.
Then `NS(=O)(=O)c1ccc(NC(=S)NC(=O)c2ccc(Br)o2)cc1`, with 25.1%; and `Cc1cc(C(=O)COC(=O)/C=C/c2cccc(F)c2)c(C)n1C`, with 10.6%.
As to `Cc1[nH]c2ccccc2c1C1=NNC(=Nc2ccc(F)cc2)SC1`, the “hERG current change (%, negative = inhibition) at 10uM” value is on record as 17.7%.
Then `COc1ccc(C(CNC(=O)c2ccc(Cl)c(S(=O)(=O)N3CCCC3)c2)N2CCCC2)cc1` (stereo not shown), with -57.6%; and `O=C(CN1C(=O)CCSc2ccccc21)NC1CCCCC1`, with 4.58%; and `O=C(NC1(C(F)(F)F)NC(=O)N(c2ccc(F)cc2)C1=O)c1ccncc1` (stereo not shown), with -5.28%.
As for `O=C(Cc1ccc(Cl)cc1Cl)NC1CCCCCC1`, the “hERG current change (%, negative = inhibition) at 10uM” value is reported as -1.59%.
The figure for `COc1ccc(O)c(C(=O)c2cc(SCC(=O)O)c3nc4sc5c(c4c(=O)n3c2)CCCC5)c1` is 6.54%; for `CCOc1ccccc1CN1CCN(Cc2nc3ccccc3s2)CC1CCO` (stereo not shown) it is -74.8%; for `Cc1cc2c3c(c1C)C1(C(=O)N3C(C)(C)CC2C)C(C#N)=C(N)OC2=C1C(=O)CC(C)(C)C2` (stereo not shown) it is -1.25%.
For `O=C(C1CCCO1)N1CCN(C(=S)Nc2ccc(Cl)c(Cl)c2)CC1` (stereo not shown), the “hERG current change (%, negative = inhibition) at 10uM” value was -30.2%.
Consider `COc1ccc(CC(=O)Nc2ccccc2N2CCCC2)cc1`, for which the “hERG current change (%, negative = inhibition) at 10uM” value was -6.14%.
The figure for `CC1CCCCC1NC(=O)COC(=O)/C=C/c1ccco1` (stereo not shown) is -1.9%.
`CCOc1[nH]n(-c2ccccc2)c(=O)c1C=Nc1ccc(OC)cc1`: the “hERG current change (%, negative = inhibition) at 10uM” value stood at 1%.
Then `COc1ccc(-c2cc(N3C(=O)Nc4ccccc4N3O)n[nH]2)cc1OC`, with 3.84%; and `Cc1ccc(CNC(=S)N2CCOCC2)cc1`, with 4.71%.
The figure for `CCCCC(=O)N1CC(=O)Nc2ccc(F)cc2C1c1ccc(F)cc1` (stereo not shown) is 15.2%; for `O=C(Nc1ccccc1C(F)(F)F)N1CCC(n2c(=O)[nH]c3ccccc32)CC1` it is 4.3%; for `CC(C)c1ccc(C(=O)OCC(=O)NC2CCCC2)cc1` it is 17%.
Then `Cc1c(C=O)c2ccccn2c1C(=O)c1ccccc1Cl`, with 10.6%; and `CC(=O)Nc1ccc2c(c1)nc(CCNC(=O)c1ccccc1)n2C`, with 10.5%; and `Cc1cccc(NC(=O)C2CCN(S(=O)(=O)c3c(C)nn(C)c3C)CC2)n1`, with 12.3%.
For `O=C(Nc1cc(Cl)ccc1-n1cncn1)c1cc(F)c(F)c(F)c1F`, the “hERG current change (%, negative = inhibition) at 10uM” value is listed as -27.9%.
Then `Cc1cc(C)nc(SSc2nc(C)cc(C)n2)n1`, with 14.9%.
As to `O=C(NC(c1ccccc1)c1ccccn1)c1cccc([N+](=O)[O-])c1` (stereo not shown), the “hERG current change (%, negative = inhibition) at 10uM” value is recorded as -15.9%.
For the compound `CS(=O)(=O)NNC(=O)c1csc(Cc2c(Cl)sc3ccc(Cl)cc23)n1`, the “hERG current change (%, negative = inhibition) at 10uM” value was 9.41%.
The figure for `CC(CCc1ccc(O)cc1)NCCc1ccc(O)c(O)c1.Cl` (stereo not shown) is -13.9%; for `CC(C)C(NC(=O)c1ccc(C(C)(C)C)cc1)C(=O)NCC(c1ccccc1)N(C)C` (stereo not shown) it is -18.7%; for `O=C(Cn1nc(Cl)nc1Cl)Nc1ccccc1` it is -1.44%.
On to `COc1ccc(C(=O)Nc2ccc(S(=O)(=O)Nc3nccc(C)n3)cc2)cc1[N+](=O)[O-]`, for which the “hERG current change (%, negative = inhibition) at 10uM” value is 16.2%.
For `CC(=O)Nc1sc2c(c1CN1CCN(C)CC1)CCCC2`, the “hERG current change (%, negative = inhibition) at 10uM” value was -1.92%.
For `Cc1ccc(NC(=O)COC(=O)C2CSC3(C)CCC(=O)N23)cc1S(=O)(=O)N1CCOCC1` (stereo not shown), the “hERG current change (%, negative = inhibition) at 10uM” value is on record as -31.3%.
Regarding `Cc1ccc(Cl)c(OCC(=O)Nc2ccccc2C(=O)NC2CC2)c1`, the “hERG current change (%, negative = inhibition) at 10uM” value is on record as 3.5%.
`CN1C(=O)C(=Cc2ccc(N(C)C)c([N+](=O)[O-])c2)C(=O)N(C)C1=O`: the “hERG current change (%, negative = inhibition) at 10uM” value stood at 1.01%.
In the case of `COC(=O)CCC(=O)N1CCCC(CO)(Cc2ccccc2)C1` (stereo not shown), the “hERG current change (%, negative = inhibition) at 10uM” value is -11.3%.
Then `COc1ccc(CCN2C(=O)CSC2c2ccc(OC)c(OC)c2)cc1OC` (stereo not shown), with -8.22%.
